# In the supplement of paper PMC5919970:
# Where a name gives a salt, the structure may show the parent alone. Whole data set: some 2,000 compounds, median “fractional viability relative to vehicle” near 0.91, cut for the lowest 2% near 0.045. The list shows a part of the results.
# Test system: TYKNU
# Assay: fractional viability relative to vehicle; TYKNU is a high-grade serous ovarian cancer line; higher = less growth inhibition
# Conditions: 72 h
# Outline: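 TYKNU control cells or lentiCRISPRv2 knockout derivatives were plated at 500 cells per well in duplicate into drug-stamped 384-well plates holding a ~2100-compound library at 2 or 10 μM. Culture was in RPMI 1640 with 10% FBS at 37 °C in 5% CO2, with 72 h of drug treatment. Viability was measured by Cell Titer Glo luminescence, and the averaged duplicate treatment wells were normalised to duplicate control wells at the same plate position.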
# [1] = 2uM, genotype: DNM1L knockout (sgDNM1L #1)
# [2] = 2uM, genotype: sgCTRLA1 (non-targeting control)
# [3] = 10uM, genotype: DNM1L knockout (sgDNM1L #1)
# [4] = 10uM, genotype: sgCTRLA1 (non-targeting control)
Compound,fractional viability [1],fractional viability [2],fractional viability [3],fractional viability [4]
"Cc1cc(Nc2cc(N3CCN(C)CC3)nc(Sc3ccc(NC(=O)C4CC4)cc3)n2)n[nH]1 [VX-680 (Tozasertib, MK-0457)]",0.471,0.543,0.555,0.555
Clc1ccc2nsnc2c1NC1=NCCN1 [Tizanidine HCl],1.01,1.11,0.859,1.08
Cc1cc(C(C)Nc2ccccc2)c2nc(N3CCOCC3)cc(=O)n2c1 (stereo not given),1.07,0.981,0.713,0.926
N[C@H]1CC[C@H](N[C@@H]2C[C@H]2c2ccccc2)CC1,0.777,0.909,0.758,0.712
NC1(Cc2ccc(Cl)cc2)CCN(c2ncnc3[nH]ccc23)CC1,0.82,0.97,0.224,0.211
Clc1ccc(C2(c3ccc(-c4cn[nH]c4)cc3)CCNCC2)cc1,0.692,0.954,0.264,0.267
C[C@]12CC[C@@H]3c4ccc(O)cc4C[C@@H](CCCCCCCCC[S+]([O-])CCCC(F)(F)C(F)(F)F)[C@H]3[C@@H]1CC[C@@H]2O (stereo not given in full) [Fulvestrant],1.06,1.18,0.743,1.01
CNC(=O)[C@@H](NC(=O)[C@H](CC(C)C)[C@H](O)C(=O)NO)C(C)(C)C [Marimastat(BB-2516)],0.785,1.08,0.6,0.827
C=C[C@](C)(O)CC[C@@H]1[C@@]2(C)CCCC(C)(C)[C@@H]2CC[C@@]1(C)O [Sclareol],0.914,1.23,0.575,1.09
COC(=O)[C@H](Cc1ccccc1)NC(=O)[C@@H](N)CC(=O)O [Aspartame],1.02,1.15,0.941,0.985
CCS(=O)(=O)c1cccc(-c2cc(C(=O)NC3CCN(C)CC3)c(C)c3[nH]c4ncc(C)cc4c23)c1,0.299,0.275,0.0964,0.0866
CN1CCc2nc(C(=O)N[C@@H]3C[C@@H](C(=O)N(C)C)CC[C@@H]3NC(=O)C(=O)Nc3ccc(Cl)cn3)sc2C1 [Edoxaban],0.984,1.06,0.607,1.03
OCCn1cc(-c2ccc3c(c2)CC/C3=N\O)c(-c2ccncc2)n1,0.943,0.957,0.717,0.816
CC[C@H]1OC(=O)[C@H](C)[C@@H](O[C@H]2C[C@@](C)(OC)[C@@H](O)[C@H](C)O2)[C@H](C)[C@@H](O[C@@H]2O[C@H](C)C[C@H](N(C)C)[C@H]2O)[C@](C)(O)C[C@@H](C)CN(C)[C@H](C)[C@@H](O)[C@]1(C)O [Azithromycin],1.05,1.04,1.14,0.9
CN[C@H]1CC[C@@H](c2ccc(Cl)c(Cl)c2)c2ccccc21 [Sertraline HCl],1.05,1.02,0.311,0.319
